# Measurements published in PubChem BioAssay AID662 (National Center for Advancing Translational Sciences (NCATS), 2007).
# Where “and” joins values, the source holds several entries; their conditions need not be identical. Equal values may be shown once. The campaign covered roughly 71,000 compounds. About 1,800 (2.5%) were called active. Inconclusive means that the source gave no clear call. Such entries were picked first, then a sample of the others. Calls follow the shape of the dose curve; as a rule, active = well fitted activation curve with a large enough effect in the signal ratio, with a control signal flat (not every such curve was filed as active); inconclusive = small, poorly fitted or top-dose-only effect, or effect the other way, or a change in a side signal; inactive = flat fitted curve, though single readings scatter; the % refers to the signal ratio. Potencies of inconclusive entries are doubtful fits and often do not repeat.
# Assay: Cell signaling CRE-BLA (Fsk stim); as to activity change, negative = inhibition: % of control where 0% means no effect
# Details: CHO CRE-bla reporter (cAMP response element driving beta-lactamase), forskolin EC10, beta-lactamase ratio
# Procedure, shortened: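 Modulation of forskolin signalling: compounds in titration series added with EC10 NKH 477 to CHO cells carrying a CRE-driven beta-lactamase reporter, 3 h, 37C. CCF4 FRET ratio (460/530 nm, ex 405 nm) gives %activity and AC50.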
# [1] = activity change, negative = inhibition: at 38.2 µM (top of the series) unless noted
# Potency is read from the fitted curve at half-maximal effect; tags tell the direction and shape of the fitted curve.
smiles,measurement,setting,value
COc1ccccc1-c1cc(C(F)(F)F)nc(N2CCOCC2)n1,Potency,[1],inactive
CCN(CC)c1ccc(C(=O)OCC(=O)N2CCN(c3ccccc3)CC2)cc1,Potency,[1],inactive
O[C@@H](c1cc(-c2ccc(Cl)cc2)nc2ccccc12)[C@@H]1CCCCN1,"activity change, negative = inhibition",[1],inactive: -21.9% [at 7.6 µM]
Cc1cc(NC(=O)c2cc(-c3ccncc3)nc3c(C)cccc23)no1,Potency,[1],"inconclusive: 10 µM [rising, partial curve]"
COCCN(CCOC)c1ncnc2c1cnn2-c1ccc(Cl)cc1,Potency,[1],active: 10 µM
CN(C)c1ccc(C(=O)OCC(=O)NC2CCCCC2)cc1,"activity change, negative = inhibition",[1],inconclusive: -5.06%
NCCCCCCCCCCN,"activity change, negative = inhibition",[1],inconclusive: -1.57%
Cc1ccc2oc(=O)c3cc(C(=O)N4CCN(C(=O)c5ccco5)CC4)sc3c2c1,Potency,[1],"inconclusive: 3.16 µM [rising, single point]"
CCOC(=O)c1cnn2c(N)c(C#N)nnc12,Potency,[1],inactive
COc1ccc(OCCOC(=O)c2cccc(-n3cnnn3)c2)cc1,Potency,[1],"inconclusive: 7.94 µM [rising, partial curve]"
Cn1c(=O)c2ncn(CC(=O)Nc3cc(C(F)(F)F)ccc3N3CCOCC3)c2n(C)c1=O,Potency,[1],"inconclusive: 12.6 µM [rising, partial curve]"
COC(=O)[C@@]1(Cc2ccccc2)[C@H]2c3cc(C(=O)N4CCCC4)[nH]c3C[C@H]2CN1C(=O)c1ccccc1,Potency,[1],active: 2 µM
COc1ccc(-c2c(C)nn3c(N4CCN(Cc5ccccc5)CC4)cc(C)nc23)cc1OC,Potency,[1],inactive
CC(=O)Nc1cccc(Oc2cc(C#N)c(C#N)cc2N2CCCCCC2)c1,Potency,[1],inactive
COc1ccc(C(CC(=O)O)NC(=O)COc2ccccc2)cc1OC (centres undefined),"activity change, negative = inhibition",[1],inconclusive: -7.52%
Cc1nn(Cc2ccccc2)c2sc(C(=O)NCc3cccnc3)cc12,Potency,[1],"inconclusive: 12.6 µM [rising, single point]"
Cc1cc(Nc2ccc(F)cc2)n2nc(C)nc2n1,Potency,[1],"inconclusive: 10 µM [rising, partial curve]"
O=C1c2ccccc2S(=O)(=O)N1CCOc1ccccc1,"activity change, negative = inhibition",[1],inconclusive: 10.6%
Cc1ccc(NC(=O)CN(C)S(=O)(=O)c2cnc[nH]2)cc1C,"activity change, negative = inhibition",[1],inconclusive: 21%
Cc1ccsc1CN1CCN(c2ccccn2)CC1,"activity change, negative = inhibition",[1],inconclusive: -15% [at 7.6 µM]
COc1cccc(NC(=O)CCCn2c(=O)[nH]c3ccccc3c2=O)c1,"activity change, negative = inhibition",[1],inconclusive: -1.19%
Cn1c(-c2ccc(Br)o2)nc2ccccc21,Potency,[1],"inconclusive: 12.6 µM [rising, single point]"
O=c1c(-c2ccc(F)cc2)nc2cnc(N3CCNCC3)nc2n1Cc1ccc(F)cc1,Potency,[1],"inconclusive: 0.398 µM [rising, partial curve]"
COc1ccc(-n2c(=O)cnc3cnc(N(C)C)nc32)cc1,Potency,[1],active: 10 µM
O=C(NCc1ccco1)c1cc(-c2ccccc2)c(N2CCOCC2)s1,"activity change, negative = inhibition",[1],inconclusive: -10.7%
CN(N=O)C(=O)N[C@H]1C(O)OC(CO)[C@@H](O)[C@H]1O (some centres undefined),"activity change, negative = inhibition",[1],inconclusive: 3.39%
COCCn1c(=O)[nH]c2cc(C(=O)OC)ccc2c1=O,Potency,[1],inactive
CC1(C)OC(=O)NC1=O,Potency,[1],inactive
Cn1c(C(=O)N2CCN(c3ccc(Cl)cc3)CC2)cc2c(=O)[nH]c3ccccc3c21,"activity change, negative = inhibition",[1],inconclusive: -11.2%
C/C=C/c1ccc(Oc2nnnn2-c2ccc(C(N)=O)cc2)c(OC)c1,Potency,[1],inactive
CCCc1cc(C(N)=O)c(NC(C)=O)s1,Potency,[1],"inconclusive: 0.02 µM [rising, full curve, poor fit]"
O=C(CSc1nnc2ccccn12)NCCN1C(=O)CSC1=O,Potency,[1],inactive
COc1ccccc1NC(=O)CSc1nccc(=O)[nH]1,Potency,[1],active: 0.501 µM
CCN(CC)c1ccc2c(c1)OC(N)=C(C#N)C2c1cccnc1 (centres undefined),Potency,[1],"inconclusive: 0.398 µM [rising, full curve]"
N[C@@H](C(=O)O)c1ccc(C(=O)O)c(C(=O)O)c1,"activity change, negative = inhibition",[1],inconclusive: -4.46% and inconclusive: -20.5%
same,"activity change, negative = inhibition",at 38.2 µM (top of the series),inactive: -13.1%
COCCn1c(SCC(=O)c2cccc(OC)c2)nnc1-c1ccco1,Potency,[1],inactive
CCOC(=O)C1CCCN(c2ncnc3c2cnn3-c2ccc(OC)cc2)C1 (centres undefined),"activity change, negative = inhibition",[1],inconclusive: 17%
COCCN1C=C(C(=O)OC)C(c2cc(Br)c(OC)c(OC)c2)C(C(=O)OC)=C1,Potency,[1],"inconclusive: 3.98 µM [rising, partial curve]"
CC1=C(C#N)C(C(F)(F)F)(C(F)(F)F)N=C(c2ccco2)N1,"activity change, negative = inhibition",[1],inconclusive: -11.1%
CC(=O)N1CCN(c2ccc(N=Cc3c(O)n(Cc4ccccc4)c(=O)[nH]c3=O)cc2)CC1,Potency,[1],"inconclusive: 15.8 µM [falling, partial curve]"
Cc1ccc(C(O)CN2C3=NCCN3c3ccccc32)cc1 (centres undefined),"activity change, negative = inhibition",[1],inconclusive: 4.97%
CC1CCCCN1C(=O)Cn1cc(C(=O)c2ccco2)c2ccccc21 (centres undefined),Potency,[1],inactive
COc1ccc(CC/C(=N\O)C2(O)CCCCC2)cc1,"activity change, negative = inhibition",[1],inconclusive: -4.06% [at 7.6 µM]
COc1ccccc1-c1nnc(SC/C(O)=C(\C#N)c2nc3ccccc3[nH]2)n1C1CCCCC1,Potency,[1],"inconclusive: 3.98 µM [rising, partial curve, poor fit]"
COc1cc2c(cc1OC)-c1nnnn1C(C)(C)C2,Potency,[1],"inconclusive: 12.6 µM [rising, partial curve]"
COc1ccc(CCNc2nc(=O)[nH]nc2C)cc1OC,Potency,[1],inactive
Cc1ccc(S(=O)(=O)N2CCOCC2)cc1C(=O)O,"activity change, negative = inhibition",[1],inconclusive: 10.1%
CSc1ccc(NC(=O)Nc2cc(C)ccn2)cc1,Potency,[1],"inconclusive: 3.98 µM [rising, single point]"
CCN(CC)c1ccc(NC(=O)c2[nH]c(C)c(C(C)=O)c2C)c(C)c1,"activity change, negative = inhibition",[1],inconclusive: 1.69%
Cc1nn(-c2ccc(Cl)cc2)c(N)c1C(O)(CSc1nccn1C)C(F)(F)F (centres undefined),Potency,[1],"inconclusive: 3.98 µM [falling, single point]"
COCCn1c(=O)c(CCc2ccccc2)nc2cnc(Oc3ccc(OC)cc3)nc21,Potency,[1],inactive
O=C(c1cccc(F)c1)N1CCC2(CC1)CN(Cc1ccccc1)C2,Potency,[1],inactive
Cc1nc(Nc2ccc3c(c2)OCCO3)c2nnn(Cc3ccccc3Cl)c2n1,Potency,[1],"inconclusive: 0.126 µM [falling, full curve, poor fit]"
